Here are results for 5 molecules from paper PMC9023467.

Protein sequences, listed by entry. Tags and fused reporters are not part of them. Lines headed by an entry give the natural chain unless they say otherwise; changes in a name come on top. Residues count along the entry.
UniProt P37231, residues 29-505: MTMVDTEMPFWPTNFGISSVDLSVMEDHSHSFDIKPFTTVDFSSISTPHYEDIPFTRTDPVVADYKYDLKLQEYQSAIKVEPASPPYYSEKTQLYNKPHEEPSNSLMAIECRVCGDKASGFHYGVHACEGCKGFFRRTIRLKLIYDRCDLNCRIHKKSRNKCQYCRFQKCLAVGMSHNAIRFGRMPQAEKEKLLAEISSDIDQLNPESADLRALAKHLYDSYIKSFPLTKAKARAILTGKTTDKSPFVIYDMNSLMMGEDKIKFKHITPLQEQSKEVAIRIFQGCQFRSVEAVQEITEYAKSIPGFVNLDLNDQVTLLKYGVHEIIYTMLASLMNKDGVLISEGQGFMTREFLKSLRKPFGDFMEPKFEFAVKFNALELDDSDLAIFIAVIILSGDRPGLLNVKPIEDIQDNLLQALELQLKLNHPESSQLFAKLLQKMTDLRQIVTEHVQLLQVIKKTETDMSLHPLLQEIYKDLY
UniProt Q03181: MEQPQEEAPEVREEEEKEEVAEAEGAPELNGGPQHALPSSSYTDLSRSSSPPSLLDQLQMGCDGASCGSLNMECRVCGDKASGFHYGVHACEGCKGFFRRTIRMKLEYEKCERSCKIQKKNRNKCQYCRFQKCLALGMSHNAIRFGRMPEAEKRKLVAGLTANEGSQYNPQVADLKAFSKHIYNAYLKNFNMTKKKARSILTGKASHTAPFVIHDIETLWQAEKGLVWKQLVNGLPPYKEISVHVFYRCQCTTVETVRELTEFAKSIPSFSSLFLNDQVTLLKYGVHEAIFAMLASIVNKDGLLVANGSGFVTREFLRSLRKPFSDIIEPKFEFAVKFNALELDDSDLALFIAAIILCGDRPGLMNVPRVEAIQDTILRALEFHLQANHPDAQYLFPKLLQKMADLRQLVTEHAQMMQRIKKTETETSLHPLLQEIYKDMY

These are yes or no findings as the source states them, for the method shown. For some assays here: In cells and extracts the contact can be indirect. Some binding calls cover weakened binding; strength is not graded here. For some assays here: Where a sequence is shown, tags or fusion partners need not be part of it.

Assay [1] has as its target T1, ubiquitin-specific protease 22 (USP22), endogenous (human (endogenous in MHCC-97H, MHCC-97L, HUH7, HepG2, SNU449, Bel-7402)) (UniProt Q9UPT9).
T1 sequence: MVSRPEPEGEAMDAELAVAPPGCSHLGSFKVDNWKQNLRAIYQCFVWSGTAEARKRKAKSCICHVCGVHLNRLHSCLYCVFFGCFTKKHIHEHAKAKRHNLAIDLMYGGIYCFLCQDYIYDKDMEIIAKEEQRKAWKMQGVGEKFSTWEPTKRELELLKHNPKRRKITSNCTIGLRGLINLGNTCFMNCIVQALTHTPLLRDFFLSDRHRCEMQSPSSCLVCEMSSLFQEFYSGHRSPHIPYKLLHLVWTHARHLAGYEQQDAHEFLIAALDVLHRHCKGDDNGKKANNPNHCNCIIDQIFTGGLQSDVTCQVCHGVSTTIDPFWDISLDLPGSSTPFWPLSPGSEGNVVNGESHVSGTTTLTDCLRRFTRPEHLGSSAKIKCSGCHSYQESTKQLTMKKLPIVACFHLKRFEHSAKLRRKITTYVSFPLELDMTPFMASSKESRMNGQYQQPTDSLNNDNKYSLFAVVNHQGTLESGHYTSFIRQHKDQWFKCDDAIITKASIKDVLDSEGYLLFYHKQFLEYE
The experiment in a line: co-IP; lysates of HCC cells (MHCC-97H; MHCC-97L, HUH7, HepG2, SNU-449, Bel-7402) immunoprecipitated with IgG or USP22 antibodies, immunoblot; E1A lysis buffer (250 mM NaCl, 50 mM HEPES pH 7.5, 0.1% NP-40, 5 mM EDTA). Background: In western blotting, separated proteins are transferred to a membrane and probed.

The target in another assay is T2, Myc-USP22 (UniProt Q9UPT9).
T2 sequence: T1 sequence
The experiment in a line: co-IP; HEK293T transfected for 24 h with Flag-PPARγ or Myc-USP22 alone or in combination; lysates immunoprecipitated with Flag and Myc antibodies, immunoblot with Myc or Flag antibodies.

The target in assay [2] is GST-tagged PPARγ (GST-PPARγ) (UniProt P37231). The experiment in a line: pull-down; GST-PPARγ immobilised on GST-tag resin, incubated with purified His-USP22 at 4 °C for 4 h in 50 mM Tris-HCl, 200 mM NaCl, 1 mM EDTA, 1% NP-40, 1 mM DTT, pH 8.0; Western blot; both purified.

Turning to “peroxisome proliferator-activated receptor gamma (PPARγ), endogenous (from UniProt P37231-2 1-477)”, the binding entry in assay [1] is on record as “binds”.
Consider “Flag-PPARγ (from UniProt P37231-2 1-477)”, for which, in the assay with Myc-USP22, the binding result is “binds”.
Take “PPARδ, endogenous (from UniProt Q03181 1-441)”: in assay [1], the binding result is listed as “no binding”.

B1: 6×His-tagged USP22 (His-USP22) (enzyme, UniProt Q9UPT9 1-525)
chain: T1 sequence
Regarding B1, in assay [2], the binding entry is “binds”.

B2: PPARα, endogenous (protein, UniProt Q07869 1-468)
chain: MVDTESPLCPLSPLEAGDLESPLSEEFLQEMGNIQEISQSIGEDSSGSFGFTEYQYLGSCPGSDGSVITDTLSPASSPSSVTYPVVPGSVDESPSGALNIECRICGDKASGYHYGVHACEGCKGFFRRTIRLKLVYDKCDRSCKIQKKNRNKCQYCRFHKCLSVGMSHNAIRFGRMPRSEKAKLKAEILTCEHDIEDSETADLKSLAKRIYEAYLKNFNMNKVKARVILSGKASNNPPFVIHDMETLCMAEKTLVAKLVANGIQNKEAEVRIFHCCQCTSVETVTELTEFAKAIPGFANLDLNDQVTLLKYGVYEAIFAMLSSVMNKDGMLVAYGNGFITREFLKSLRKPFCDIMEPKFDFAMKFNALELDDSDISLFVAAIICCGDRPGLLNVGHIEKMQEGIVHVLRLHLQSNHPDDIFLFPKLLQKMADLRQLVTEHAQLVQIIKKTESDAALHPLLQEIYRDMY
For the molecule B2, the binding result in assay [1] was “no binding”.
